ChEMBL document CHEMBL4888484, “Replenishing the malaria drug discovery pipeline: Screening and hit evaluation of the MMV Hit Generation Library 1 (HGL1) against asexual blood stage Plasmodium falciparum ,using a nano luciferase reporter read-out” (2022)
In all, about 150,000 compounds went through this assay and about 540 (0.36%) showed an effect of 50% or more. The list shows a part of the results.

System: Plasmodium falciparum
Assay: Primary screen in NF54 nanoGlo assay, in single point, at 2uM, 72h; a lower Z score goes with more inhibition
Format: functional, Erythrocyte
Conditions: timepoint 72 hour

| Compound | % Inhibition [%] | Z score |
| --- | --- | --- |
| CC(C)(C)N(Cc1ccccn1)C(=O)c1nc2c(s1)CCC2 | 6 | -0.72 |
| CN(CCCN1CCc2[nH]ncc2C1)c1ccccc1 | 0 | 0.05 |
| OCCCN(Cc1ccncc1)Cc1cnc(-c2ccc(Cl)cc2)nc1 | -1 | 0.23 |
| C[C@H](NC(=O)c1ccc(S(=O)(=O)N2CCCC2)cc1)c1ccccn1 | -24 | 2.38 |
| CC[C@@H](C(=O)N(CC)Cc1ccccc1)n1cnc2onc(C)c2c1=O | -4 | 0.5 |
| N#Cc1cccnc1N(CCc1ccc(Cl)cc1)CC1CC1 | 1 | -0.15 |
| CN(C)c1nccc(CNS(=O)(=O)c2ccccc2)n1 | -12 | 2.18 |
| Cn1c(CN2CCOCC2)nnc1[C@H]1CCCN(c2nc3ccccc3o2)C1 | 10 | -1.7 |
| O=C(c1ccc2cccc(Cl)c2n1)N1CCN(c2ncc[nH]c2=O)CC1 | -1 | 0.09 |
| CC(C)n1nnnc1-c1ccc(NC(=O)N2CCCOCC2)cc1F | -8 | 1.13 |
| O=C([C@@H]1CCC[C@H](O)C1)N1CCC(n2cnnc2)CC1 | -10 | 1.31 |
| O=C(O)CC[C@H]1CCCCN1Cc1c(Cl)cncc1Cl | -2 | 0.47 |
| CCOC(=O)CN(C)C(=O)CN(C)[C@@H](C)C1CC1 | -1 | 0.07 |
| CCOc1cccc(CC(=O)N2CCCN(c3cc(=O)n(C)c(=O)n3C)CC2)c1OCC | -3 | 0.45 |
| CCCCc1nc(CN2CCC(C(=O)O)(n3ccnc3C)CC2)c[nH]1 | -10 | 1.02 |
| C[C@@H](Cc1ccco1)NC(=O)c1ccncc1 | 1 | -0.17 |
| Clc1ccc(OCCCn2ccnc2)c(CN2CC(c3ccccn3)C2)c1 | 0 | -0.01 |
| O=S(=O)(Nc1cccc2c1CCCC2)c1ccc2c(c1)OCCCO2 | -7 | 1.43 |
| C#CCN(CC)[C@@H](C)c1cccc(O)c1 | -10 | 1.48 |
| Cc1c(NC(=O)[C@H]2CCOC2)cccc1N(C)C | 2 | -0.2 |
| Cn1c(C2CCN(C(=O)c3cnco3)CC2)nc2ccccc21 | -8 | 0.91 |
| CCCn1nc(C(=O)O)c2c1CC[C@H](N(C)CC1(C)COC1)C2 | 6 | -0.72 |

| Compound | % Inhibition [%] | Z score |
| --- | --- | --- |
| O=C(CC(F)(F)F)Nc1ccc(Br)cc1 | -6 | 1.22 |
| CCc1nnc2ccc(S(=O)(=O)N(CC#N)c3ccccc3)cn12 | 43 | -6.17 |
| Cc1cnc(C)c(NCCCC[C@H]2CCCO2)n1 | -4 | 0.56 |
| CC1(C)CCc2ccccc2C1NCC(O)COC1CCOCC1 (configuration not stated) | -8 | 1.4 |
| Cc1ccc(C(=O)Nc2ccc(N3CCCN(C(=O)Nc4cccc(C)c4)CC3)c(C(=O)NCc3ccc(F)cc3)c2)cc1 | 18 | -3.32 |
| CCOc1ccc(NC(=O)N2CCC(N3CCN(Cc4ccc(C)cc4)C(=O)C3=O)CC2)cc1 | -12 | 1.1 |
| COCCN(Cc1ccc(C)o1)C(=O)c1ccc2[nH]c(=O)[nH]c2c1 | 1 | -0.23 |
| CNC(=NCCOc1ccc(F)c(F)c1)NC | -3 | 0.57 |
| CCOCC(=O)N(Cc1cccs1)Cc1cccn1C | 18 | -2.02 |
| CC(C)OC1CC(NC(=O)CCn2ccnc2)C1(C)C (configuration not stated) | -4 | 0.47 |
| COCc1cccc(OCC2(CN3CCN(CC(F)F)CC3)CC2)c1 | -15 | 2.13 |
| CCn1ncc2c1CCC[C@@H]2NCc1cnc2c(C)cccn12 | -7 | 0.81 |
| Cn1ccc(C2CCN(C(=O)Nc3nsc4ccccc34)CC2)n1 | -3 | 0.35 |
| CCc1nnc(N[C@H]2CCN(C)C[C@H]2Cc2ccccc2)o1 | -6 | 0.85 |
| CC1CCN(c2nnc(C(=O)N3CCCC3)n2Cc2ccco2)CC1 | -7 | 1.4 |
| c1ccc(C2CCN(CCOC3CCCCO3)C2)nc1 (configuration not stated) | -2 | 0.21 |
| Clc1ccc(COc2ccc(Br)cc2CNc2ccc(-c3nc4ccccc4o3)cc2)c(Cl)c1 | -39 | 4.57 |
| CC(=O)NCCNC(=O)[C@H]1CC[C@H](C(C)C)CC1 | -16 | 1.51 |
| CN(Cc1cc[nH]n1)C(=O)c1ccc(S(=O)(=O)N2CCNCC2)cc1 | -5 | 0.99 |
| Cc1n[nH]c(C)c1Cc1ncnn1Cc1ccccc1 | 2 | -0.37 |
| O=C(Nc1ccc2ccccc2c1)C1=C(c2ccccc2)S(=O)(=O)CCO1 | 4 | -0.52 |
| O=C(NC1CCCCCC1)c1nc(-c2ccncc2)cs1 | -8 | 1.37 |

| Compound | % Inhibition [%] | Z score |
| --- | --- | --- |
| CC(C)CN1CCCn2nc(CNC(=O)C3=NN(C)C(=O)CC3)cc2C1 | 1 | -0.24 |
| COc1ccccc1NC(=O)C1CC=CCC1C(=O)N(c1ccccc1)c1ccccc1 (configuration not stated) | -9 | 1.83 |
| Cc1cccc(N2CCN(C(=O)c3c[nH]c4cccnc34)CC2)c1C | -2 | 0.36 |
| COCCN(c1ccncc1)S(=O)(=O)c1ccc(Cl)s1 | -3 | 0.3 |
| Cc1cccc(OCC(=O)N2CCC(CN3C[C@@H](C(=O)N4CCOCC4)CC3=O)CC2)c1 | -5 | 0.85 |
| O=S(=O)(N[C@H]1CCc2nc(-c3ccccc3)ncc2C1)c1ccc2ccccc2c1 | 12 | -1.55 |
| O=S(=O)(NCCc1nc(C2CC2)no1)c1cn[nH]c1 | -15 | 2.1 |
| C[C@@H]1Oc2ccc(Cl)cc2CN(c2cc(F)cc(F)c2)C1=O | 5 | -0.9 |
| COc1ccc(-n2ncc3c(NC4CCC(NC(=O)c5ccco5)CC4)nc(C)nc32)cc1 (configuration not stated) | -8 | 1.4 |
| O=C(O)c1ccc(CN2C[C@@H]3OCC(=O)N(Cc4ccccc4)[C@@H]3C2)cc1 | 35 | -3.96 |
| Cc1cnccc1NC(=O)N[C@@H]1CCC[C@@H]1Oc1cnn(C)c1 | -1 | 0.18 |
| CCN1C[C@H](Nc2ncccc2C#N)[C@@H](OC)C1 | -13 | 1.15 |
| Cc1ccoc1C(=O)N1CCC[C@H]1c1ccc2c(c1)OCCO2 | -11 | 1.14 |
| O=C(NCc1ccnc(-c2cccs2)c1)c1cccs1 | -1 | 0.16 |
| O[C@@H]1CCC(Nc2nc3cccc(F)c3o2)C[C@@H]1O (some centres not stated) | -4 | 0.81 |
| COCc1ncc(CN2CC[C@@]3(CCCN(C4CCCC4)C3=O)C2)cn1 | 2 | -0.41 |
| Cc1cc(=O)c(C(=O)OC2CCCCCCC2)c[nH]1 | -2 | 0.41 |
| CN(CC1CCCCO1)C(=O)CCC1(Cc2ccc3ccccc3c2)CCC(=O)N1 (configuration not stated) | 5 | -0.73 |
| Cc1cc(-n2cnnc2)ncc1-c1ccoc1 | -7 | 1.16 |
| O=C(Nc1ccc2c(c1)OCCO2)N1CCCCC[C@@H]1CN1CCCC1 | 3 | -0.5 |
| Cc1nnc(Cn2nnc(C(=O)NCC3(CC(C)C)CCC3)c2C)o1 | 31 | -4.51 |
| CCc1ncc(CNc2ccc(C)cc2OCC(=O)N(C)C)s1 | -1 | 0.08 |

| Compound | % Inhibition [%] | Z score |
| --- | --- | --- |
| CCCCC(CC)CC(=O)NCC1(O)CCOC1 (configuration not stated) | -10 | 1.44 |
| COc1ccc(CNC(=O)N2C[C@@H]3C[C@H](NS(=O)(=O)c4ccccc4)[C@H]2C3)cc1 | 35 | -3.96 |
| CC(=O)Nc1sc(NC(=O)COc2ccccc2C)nc1-c1cccs1 | -12 | 1.44 |
| CC(=O)N(Cc1ccc(F)cc1)CC1CN(Cc2sccc2C)CC1c1ccc(C)cc1 (configuration not stated) | -3 | 0.26 |
| CCCc1cnc(C)nc1N1CCC(NCCN2CCC[C@H](CO)C2)CC1 | 4 | -0.68 |
| CNc1cc(-c2ccc(C(=O)N3CCS(=O)(=O)CC3)cc2)nc(N)n1 | -3 | 0.47 |
| Clc1ccc2c(c1)CC[C@@H]2NCCc1nnc2n1CCC2 | -3 | 0.45 |
| CC[C@]1(CO)CCCN(c2cc3nncn3c(N)n2)C1 | -5 | 0.9 |
| Cc1c[nH]c(=O)n1-c1cccc(NC(=O)N2CC3CC=CCC3C2)c1 (configuration not stated) | -10 | 1.57 |
| Cc1noc(C)c1NC(=O)c1cccc(S(=O)(=O)N2CC3CC4CC3C2C4O)c1 (configuration not stated) | -9 | 1.02 |
| Cc1noc(CN(C)C2CCCCCC2)n1 | -12 | 2.17 |
| CC1CC(C)n2nccc2N1C(=O)COCC1CCCO1 (configuration not stated) | 7 | -0.64 |
| COc1cccc(CN2CCn3nc(C(=O)Nc4ccc5c(c4)CCC5)cc3C2=O)c1 | -18 | 2.07 |
| CC1(C)[C@H]2CC=C(CCNC(=O)c3cc(O)no3)[C@@H]1C2 | -5 | 0.78 |
| CCN1CC(=O)N[C@H]2CN(C(=O)COCCOC)CC[C@@H]2OCc2cccc(c2)Oc2cccc(c2)CC1=O | -17 | 2.14 |
| CCOc1cncc(CNc2ccc(CO)cn2)c1 | 2 | -0.24 |
| O=C(Nc1ncc(Cc2ccccc2)s1)c1ccncc1 | 1 | -0.23 |
| O=C(Cn1cccn1)N[C@]1(CO)COc2ccccc2C1 | -13 | 1.94 |
| CC(C)(C)C1CC(N[C@H]2CCS(=O)(=O)C2)C1 (some centres not stated) | -10 | 1.44 |
| O=C1N[C@@H](c2cccc(OCc3ccccc3)c2)Nc2c1sc(=S)n2-c1ccccc1 | -12 | 1.31 |
